Measurements as given in PubChem BioAssay AID2147 (National Center for Advancing Translational Sciences (NCATS), 2009).
Screen size: about 230,000 compounds; about 3,600 (1.6%) were called active. This list was built around the results that the source calls inconclusive (neither active nor inactive); the mix of calls is not that of the screen. Calls follow the shape of the dose curve; as a rule, active = well fitted inhibition curve with a large enough effect (not every such curve was filed as active); inconclusive = small, poorly fitted or top-dose-only effect, or another doubt; inactive = no such curve, though single readings can be large or run the other way. Potencies beside an inconclusive call are fits to weak or partial responses and may not hold up.

target: Lysine-specific demethylase 4E (Homo sapiens) (UniProt B2RXH2); experiment: qHTS Assay for Inhibitors of Human Jumonji Domain Containing 2E (JMJD2E); conditions: JMJD2E catalytic domain, FDH-coupled NADH fluorescence (FDH is formaldehyde dehydrogenase); series mostly up to 57.1 µM
Chain of UniProt B2RXH2 (B2RXH2 whole entry, looked up, the tested form may be a part): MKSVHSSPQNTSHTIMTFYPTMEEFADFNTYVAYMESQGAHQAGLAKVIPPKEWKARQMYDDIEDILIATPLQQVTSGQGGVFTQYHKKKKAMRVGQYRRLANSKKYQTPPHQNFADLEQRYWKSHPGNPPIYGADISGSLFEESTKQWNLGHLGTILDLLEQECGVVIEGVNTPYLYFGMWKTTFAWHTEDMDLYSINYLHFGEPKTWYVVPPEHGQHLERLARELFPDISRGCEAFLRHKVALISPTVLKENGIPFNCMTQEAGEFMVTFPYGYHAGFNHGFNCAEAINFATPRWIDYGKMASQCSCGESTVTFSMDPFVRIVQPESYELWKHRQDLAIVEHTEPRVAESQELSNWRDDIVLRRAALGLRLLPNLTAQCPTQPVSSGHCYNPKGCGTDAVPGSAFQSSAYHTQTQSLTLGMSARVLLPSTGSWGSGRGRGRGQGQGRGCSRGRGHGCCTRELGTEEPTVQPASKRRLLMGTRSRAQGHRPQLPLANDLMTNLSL
Also: nearly all actives have a fitted effect of over 50% in size.
Potency is read from the fitted curve at half-maximal effect; tags tell the direction and shape of the fitted curve.

Compound	Potency
CCCCCCC(=O)Nc1nc(C)c(-c2csc(Nc3cc(Cl)ccc3C)n2)s1	inactive
COCC(=O)NC1CC2CCC(C1)N2C(=S)Nc1ccccc1C(=O)OC (stereo not given)	inactive
CCOc1cc(/C=C(/C#N)c2nc3ccccc3[nH]2)ccc1Oc1ccc([N+](=O)[O-])cn1	inconclusive: 28.2 µM [inhibitor, single point]
FC(F)(F)c1ccc(N2CCN(c3cc(-c4ccccc4)nc4ncnn34)CC2)nc1	inconclusive: 35.5 µM [inhibitor, single point]
COc1cc(/C=N/n2cc(-c3ccccc3)[nH]c2=S)cc(OC)c1O	inconclusive: 39.8 µM [inhibitor, single point]
OCCN(CCO)c1ncnc2c1sc1nc(N3CCOCC3)c3c(c12)CCCC3	inconclusive: 28.2 µM [inhibitor, partial curve]
COc1ccc2nc(C)[nH]c(=O)c2c1	inconclusive: 25.1 µM [inhibitor, single point]
Cc1cc(N)c(-n2cc3c(=O)n(C)c(=O)n(C)c3c2)cc1C	inconclusive: 31.6 µM [inhibitor, partial curve]
Cc1ccc(/C=N/NC(=S)N2CCOCC2)cc1	inconclusive: 35.5 µM [inhibitor, single point]
O=C(Nc1cccc(C(F)(F)F)c1)C1CCCN(c2ncccn2)C1 (stereo not given)	inconclusive: 39.8 µM [inhibitor, single point]
CC(=O)Nc1ccc(Nc2cc(C(C)C)nc3c(-c4ccccc4)c(C)nn23)cc1	inconclusive: 28.2 µM [inhibitor, partial curve]
COc1cc2nc(CN(C)Cc3nc4ccccc4c(=O)[nH]3)[nH]c(=O)c2cc1OC	inconclusive: 25.1 µM [inhibitor, partial curve]
Cc1ccc2nc(NNC(=O)c3ccc4c(c3)OCCO4)sc2c1	inconclusive: 25.1 µM [inhibitor, single point]
COc1cccc(C(C(=O)NC2CCCCC2)N(C(=O)c2ccco2)c2ccc(-n3cnnn3)c(C)c2)c1 (stereo not given)	inactive
Cn1c(-c2csc(-c3ccccc3)n2)n[nH]c1=S	inactive
CCn1c(=NC(=O)c2ccc(S(=O)(=O)N3CCOCC3)cc2)sc2cccc(OC)c21	inconclusive: 14.1 µM [inhibitor, partial curve]
c1ccc(C2=Nc3ccccc3OC2)cc1	inconclusive: 31.6 µM [inhibitor, single point]
CCOC(=O)c1c(-c2cccs2)csc1NC(=O)CN1CCOCC1	inconclusive: 39.8 µM [inhibitor, single point]
COc1ccc(N(C)S(=O)(=O)c2cccc(C(=O)Nc3ccc(-n4cnnn4)cc3)c2)cc1	inconclusive: 39.8 µM [inhibitor, single point]
NC(=O)CSc1nnc(-c2cc(-c3cccs3)nc3ccccc23)o1	inconclusive: 10 µM [inhibitor, partial curve]
Cc1nc2ccc(NC(=S)NC(C)C)cc2nc1C	inconclusive: 35.5 µM [inhibitor, single point]
Cc1cccc(NC(=S)NCCc2ccccc2)n1	inconclusive: 25.1 µM [inhibitor, single point]
O=C(NCCCOc1cccc(CN2CCCCC2)c1)c1ccc(Cl)c(Cl)c1	inconclusive: 39.8 µM [inhibitor, single point]
C=CCc1cccc2cc(C(=O)NNC(=O)CC#N)c(=O)oc12	inconclusive: 39.8 µM [inhibitor, single point]

Compound	Potency
CCOc1ccc2[nH]c(=O)c(CN(CC3COCCO3)C(=O)c3ccco3)cc2c1 (stereo not given)	inconclusive: 8.91 µM [inhibitor, partial curve]
CN(C)/C=N/c1nc2ncc(-c3ccc(Cl)cc3)c(/N=C/N(C)C)n2n1	inconclusive: 28.2 µM [inhibitor, single point]
COCc1cc(C)nc(NC2CCCCC2)c1C#N	inconclusive: 25.1 µM [inhibitor, partial curve]
COC(=O)c1ccccc1NC(=O)n1cc(C)cn1	inconclusive: 25.1 µM [inhibitor, partial curve]
COC(=O)c1ccc(=O)n(Cc2ccco2)c1	active: 31.6 µM
O=C(COC(=O)Cc1ccc(S(=O)(=O)N2CCOCC2)s1)NCc1ccccc1	inconclusive: 39.8 µM [inhibitor, single point]
COCCSc1ccccc1C(=O)N1CCc2ccccc2C1	inconclusive: 39.8 µM [inhibitor, single point]
O=C(Nc1cccc2ccccc12)C(=O)C1C(=O)Nc2ccccc21 (stereo not given)	inconclusive: 28.2 µM [inhibitor, partial curve]
Cc1cc2cc3c(cc2nc1SCC(=O)N1c2ccccc2CC1C)OCO3 (stereo not given)	inconclusive: 35.5 µM [inhibitor, single point]
S=C(Nc1cccc2ccccc12)NN1CCOCC1	inconclusive: 28.2 µM [inhibitor, single point]
N#CCSC1=Nc2ccccc2C2=NC(CCC(=O)N3CCN(c4ccccc4)CC3)C(=O)N12 (stereo not given)	inconclusive: 39.8 µM [inhibitor, single point]
Cc1cc(C)c2c(N)c(C(=O)NCc3ccco3)sc2n1	inconclusive: 28.2 µM [inhibitor, partial curve]
CCCOc1ccc(NC(=O)c2c(-c3ccccc3)noc2C)cc1	inactive
O=C1CCCc2c1[nH]c1c(Br)cccc21	inconclusive: 17.8 µM [inhibitor, partial curve, poor fit]
CC(C)(C)c1ccc(CNc2ccc([N+](=O)[O-])cn2)cc1	inactive
Cc1cc(=O)n(C2CCS(=O)(=O)C2)[nH]1 (stereo not given)	active: 22.4 µM
Cc1ccc(S(=O)(=O)/N=C(\Sc2ccccc2)c2ccccc2)cc1	inactive
COc1ccc2c(=O)c3c(=O)n(Cc4ccco4)c(-c4ccco4)nc3oc2c1	inconclusive: 35.5 µM [inhibitor, single point]
OCCN1CCN(CCOc2ccccc2-c2ccccc2)CC1	inactive
CCCC(C(=O)NC(C)(C)C)N(C(=O)c1snc(C(N)=O)c1N)c1ccc2c(c1)OCCO2 (stereo not given)	inconclusive: 31.6 µM [inhibitor, single point]
Cc1c(C(=O)NCc2cccnc2)sc2nc(-c3ccc(F)cc3)cn12	inconclusive: 39.8 µM [inhibitor, single point]
CCN(CC)c1nc2cc(OC)ccc2cc1C#N	inconclusive: 25.1 µM [inhibitor, partial curve]
Cc1noc(/C=C/c2ccco2)c1S(=O)(=O)N1CCC(C(=O)N(C)Cc2ccccc2)CC1	inconclusive: 39.8 µM [inhibitor, single point]
Cc1nc2sccn2c1P(c1c(C)nc2sccn12)c1c(C)nc2sccn12	inactive

Compound	Potency
Cc1cccc2cc(C3CC(c4ccco4)=NN3S(=O)(=O)c3ccccc3)c(Cl)nc12 (stereo not given)	inactive
CCCn1c(=O)c(C(=O)Nc2ccccc2)c(O)c2ccccc21	inconclusive: 17.8 µM [inhibitor, single point]
SC(COCc1ccccc1)CN1CCN(Cc2ccc3c(c2)OCO3)CC1 (stereo not given)	inactive
O=c1cc(N2CCN(c3cccc(Cl)c3)CC2)[nH]c(=O)n1C1CCCCC1	inactive
CCn1cc(C(=O)NC2CCCCC2)c(=O)c2cc(S(=O)(=O)N(C)C)ccc21	inactive
CC(C)(C)CC(=O)Nc1nnc(-c2cccs2)s1	inconclusive: 14.1 µM [inhibitor, partial curve]
CCN(CC)S(=O)(=O)c1cc(-c2nnc(-c3ccc(Br)cc3)o2)ccc1Br	inconclusive: 22.4 µM [inhibitor, partial curve]
O=C(Nc1sc2c(c1C(=O)NCc1cccnc1)CCCC2)c1ccco1	inconclusive: 35.5 µM [inhibitor, single point]
O=C(N/N=C/c1c(O)n(Cc2ccccc2)c(=O)c2ccccc12)c1cccnc1	inconclusive: 22.4 µM [inhibitor, partial curve]
Cc1ccccc1-c1ccc(Nc2ccc(N3CCOCC3)cc2)nn1	inactive
COC(CNC(=O)c1c[nH]c2ccc(S(=O)(=O)N3CCC4(CC3)OCCO4)cc2c1=O)OC	inconclusive: 28.2 µM [inhibitor, single point]
Nc1ccc2c(c1)nc(Cc1ccccc1)n2CCO	inconclusive: 28.2 µM [inhibitor, single point]
Cc1cc(C)cc(Nc2nc3c(S(=O)(=O)c4ccccc4)nnn3c3ccccc23)c1	inconclusive: 0.708 µM [inhibitor, full curve, poor fit]
O=C(NC1(C(F)(F)F)N=C2SCCN2C1=O)C1CCCCC1 (stereo not given)	inactive
COc1ccccc1NC1=CC(=O)CC(c2ccccc2)C1 (stereo not given)	inactive
CCSc1nc(-c2cccs2)nc2ccccc12	inconclusive: 31.6 µM [inhibitor, single point]
COc1cccc(Oc2coc3c(CN4CCOCC4)c(O)ccc3c2=O)c1	inconclusive: 28.2 µM [inhibitor, partial curve]
O=C(NC1CCCC1)c1ccc(CN2CCOCC2)cc1	inconclusive: 31.6 µM [inhibitor, single point]
CC(NC(=O)c1ccc(Cn2cc([N+](=O)[O-])cn2)cc1)c1ccccc1 (stereo not given)	inactive
CCOc1ccc(-c2nc(CSc3nnc(C)s3)cs2)cc1OC	inconclusive: 28.2 µM [inhibitor, single point]
COc1ccc(CNC(=O)C2Cc3ccccc3CN2C(=O)c2ccco2)cc1 (stereo not given)	inactive
CC1CN(C(NC(=O)C(C)(C)C)C(Cl)(Cl)Cl)CC(C)O1 (stereo not given)	inconclusive: 39.8 µM [inhibitor, single point]
